# Some of the results follow. The energies were worked out here from pooled read counts, against the library average; single values are noisy.
# Biological target: T1, Pho4 (S. cerevisiae) (UniProt P07270)
# T1 sequence: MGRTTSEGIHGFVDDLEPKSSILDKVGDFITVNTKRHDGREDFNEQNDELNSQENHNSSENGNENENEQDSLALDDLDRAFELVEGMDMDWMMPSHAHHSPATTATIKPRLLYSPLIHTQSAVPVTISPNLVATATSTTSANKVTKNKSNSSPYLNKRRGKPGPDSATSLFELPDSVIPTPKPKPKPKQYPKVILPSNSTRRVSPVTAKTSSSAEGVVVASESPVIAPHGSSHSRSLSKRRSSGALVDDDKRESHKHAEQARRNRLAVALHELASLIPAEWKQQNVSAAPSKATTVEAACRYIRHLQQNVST
# Assay: relative binding free energy (BET-seq); higher = weaker binding
# Conditions: reference: library average
row,Sequence,relative binding free energy
1,TGAAACACGTGGTTGA,-0.12 kcal/mol
2,TAGGGCACGTGCTGTG,-0.21 kcal/mol
3,TTCGGCACGTGGACGG,0.01 kcal/mol
4,TGTGTCACGTGTGTGT,0.08 kcal/mol
5,TGGTTCACGTGAGGGT,0.43 kcal/mol
6,TAGAACACGTGTTGGA,0.1 kcal/mol
7,GGTTACACGTGTCTGG,-0.09 kcal/mol
8,AGGCGCACGTGTTGAG,-0.02 kcal/mol
9,TGCGTCACGTGTGGGA,0.06 kcal/mol
10,AAAGTCACGTGTGTGA,0.08 kcal/mol
11,ACGTTCACGTGGGCAG,0.13 kcal/mol
12,TGTTCCACGTGTGTTA,0.11 kcal/mol
13,AGGTTCACGTGCAAGG,0.34 kcal/mol
14,GTGCGCACGTGGGAAA,-0.07 kcal/mol
15,GAGTACACGTGTGGGC,0.27 kcal/mol
16,ATTAGCACGTGGCCGT,-0.06 kcal/mol
17,AATTGCACGTGGTGAG,-0.06 kcal/mol
18,TTAGGCACGTGTTGGT,-0.07 kcal/mol
19,CGGAGCACGTGGGTGC,-0.3 kcal/mol
20,TCTATCACGTGGGATG,0 kcal/mol
21,GATGGCACGTGGTAAT,-0.01 kcal/mol
22,GGTGTCACGTGATGCT,0.28 kcal/mol
23,GGGGCCACGTGAATTG,0.18 kcal/mol

row,Sequence,relative binding free energy
1,ACAGTCACGTGGTGTT,-0.08 kcal/mol
2,TGGTTCACGTGAGGCC,0.5 kcal/mol
3,TCTAACACGTGGGGAG,-0.1 kcal/mol
4,AATGCCACGTGTTTGG,-0.03 kcal/mol
5,GTCATCACGTGGGTAA,0.2 kcal/mol
6,GGCGGCACGTGAGGGT,0.17 kcal/mol
7,GATAACACGTGGTGTA,-0.26 kcal/mol
8,TTGATCACGTGAATTG,0.37 kcal/mol
9,TAATGCACGTGGATTG,-0.01 kcal/mol
10,AGTGCCACGTGGCAGG,-0.27 kcal/mol
11,ATGAGCACGTGTGTTC,-0.04 kcal/mol
12,TAGTTCACGTGTTCTA,0.27 kcal/mol
13,GAATTCACGTGGTCGT,0.3 kcal/mol
14,TGCGCCACGTGTGTGT,-0.13 kcal/mol
15,AGGGGCACGTGGTTCG,-0.14 kcal/mol
16,AACGGCACGTGTAGTG,0.09 kcal/mol
17,TAATACACGTGTTAGG,0.03 kcal/mol
18,CCAGTCACGTGGGGTA,0.03 kcal/mol
19,GCAGGCACGTGGTATT,0.02 kcal/mol
20,GGATTCACGTGAGGAG,0.46 kcal/mol
21,GATTGCACGTGCGTTT,0.1 kcal/mol
22,GTTGCCACGTGCTGTG,-0.12 kcal/mol
23,TACGGCACGTGGTTAA,-0.06 kcal/mol

row,Sequence,relative binding free energy
1,ATGGACACGTGTCTAG,0.15 kcal/mol
2,TTTTACACGTGGTGAC,0.17 kcal/mol
3,GGAATCACGTGGTGGG,0.04 kcal/mol
4,TTGTTCACGTGCGTCA,0.14 kcal/mol
5,GGGGTCACGTGGTGAC,0.07 kcal/mol
6,GATGGCACGTGAGTAA,0.16 kcal/mol
7,GCATTCACGTGAATGG,0.4 kcal/mol
8,CGTTGCACGTGATATG,-0.06 kcal/mol
9,GGTGTCACGTGTTAAA,0.3 kcal/mol
10,AGTAGCACGTGGGGGC,-0.33 kcal/mol
11,TATAACACGTGTTGTC,0 kcal/mol
12,GGACTCACGTGGGGTG,0.18 kcal/mol
13,TGAGGCACGTGCCGGC,-0.02 kcal/mol
14,TAGTGCACGTGGCTGC,0.04 kcal/mol
15,GAAGTCACGTGGGGTG,0 kcal/mol
16,GTTTCCACGTGGCGGG,0.12 kcal/mol
17,ATGTACACGTGGTTCT,-0.1 kcal/mol
18,TAAGTCACGTGTTGGG,-0.01 kcal/mol
19,GCGTGCACGTGGAAGT,-0.01 kcal/mol
20,AGGTCCACGTGGCGGA,0.03 kcal/mol
21,GCGTCCACGTGAGGGG,0.17 kcal/mol
22,TTTCTCACGTGAGTGA,0.29 kcal/mol
23,AGTCGCACGTGGGGTC,-0.15 kcal/mol

row,Sequence,relative binding free energy
1,GCAGGCACGTGGGTGT,-0.21 kcal/mol
2,CGATGCACGTGAGTTG,0.2 kcal/mol
3,TTACTCACGTGTATGA,0.21 kcal/mol
4,AACAGCACGTGATGGG,0.14 kcal/mol
5,TCAATCACGTGGATTT,0.22 kcal/mol
6,TGGTGCACGTGGGAGA,-0.17 kcal/mol
7,TAAGACACGTGGTTAG,0.02 kcal/mol
8,GGTCTCACGTGTTATA,0.22 kcal/mol
9,CTTGACACGTGGGGGA,-0.15 kcal/mol
10,TGCTTCACGTGAGGTC,0.38 kcal/mol
11,GTGAGCACGTGATAGG,-0.03 kcal/mol
12,ATGGGCACGTGCCTGG,-0.29 kcal/mol
13,AGTAGCACGTGTAGCT,-0.1 kcal/mol
14,AACGACACGTGGGTTT,0.04 kcal/mol
15,TAGGTCACGTGTACGT,0.15 kcal/mol
16,GGGTTCACGTGCTGAG,0.28 kcal/mol
17,TTATTCACGTGGTTCA,0.08 kcal/mol
18,TGTCGCACGTGTGGGA,0.01 kcal/mol
19,TTTGTCACGTGTGTTG,0.2 kcal/mol
20,AGGTGCACGTGTCATG,-0.09 kcal/mol
21,GGTCCCACGTGTTGGT,-0.02 kcal/mol
22,GTTGGCACGTGAGGGA,0.21 kcal/mol
23,GGAGACACGTGACGGT,0.09 kcal/mol

row,Sequence,relative binding free energy
1,ATTTGCACGTGATTTC,0.18 kcal/mol
2,TAGGTCACGTGGTGAC,0.04 kcal/mol
3,TTCTACACGTGGGTAA,0.12 kcal/mol
4,AGTTTCACGTGCGTGT,0.17 kcal/mol
5,AGTTCCACGTGATGGT,0.22 kcal/mol
6,TTAGACACGTGGCAGT,-0.05 kcal/mol
7,GGTTCCACGTGTTTTA,0.14 kcal/mol
8,GCGGACACGTGTGGGG,0.23 kcal/mol
9,GATAACACGTGTTTTG,-0.12 kcal/mol
10,TTGTACACGTGTTCGA,-0.1 kcal/mol
11,TTTTACACGTGGCGCG,0.12 kcal/mol
12,TAAGTCACGTGTAGTG,-0.06 kcal/mol
13,ATAGTCACGTGGGTTA,-0.03 kcal/mol
14,TCGATCACGTGAGTGT,0.35 kcal/mol
15,GTCAGCACGTGTATGG,-0.03 kcal/mol
16,GGGGTCACGTGGCAGG,0.1 kcal/mol
17,GGTCGCACGTGGTACG,-0.08 kcal/mol
18,TATCTCACGTGGTGTA,0.15 kcal/mol
19,AGGGGCACGTGTATTC,0 kcal/mol
20,TGTGCCACGTGGTAAA,0.08 kcal/mol
21,AACGGCACGTGGGGCA,-0.11 kcal/mol
22,TAGGACACGTGGATGG,-0.01 kcal/mol
23,GGGTACACGTGAGGGA,0.3 kcal/mol
